Results taken from the RNAGym collection of RNA variant scans (doi:10.1101/gad.245936.114).
This sample is rich in variants without activity.

B1: tRNA (parent)
chain: CUCUCGGUAGCCAAGUUGGUUUAAGGCGCAAGACUUUAAUUUAUCACUACGAAAUCUUGAGAUCGGGCGUUCGACUCGCCCCCGGGAGAUUUUUUCCUCGAGCAA

Variants of: B1
Experiment: nonsense suppression (GFP-seq) (ratio to wild type); higher = more function; SUP4oc tRNA, yeast GFP reporter sort-seq
Method in brief: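 To measure nonsense suppression, tRNA variants from a library carrying ~3% random mutations were integrated into the yeast genome alongside RFP and a GFP ochre reporter under galactose control. Growth took place in raffinose/galactose medium supplemented with 80 mg/L adenine, followed by sorting into GFP/RFP bins and Illumina sequencing of each bin (phred ≥30). For each variant with ≥100 reads and ≥30 cells, the bin median GFP/RFP values were weighted by its estimated cell share per bin and referenced to the unmutated parent tRNA.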

Nonsense suppression, ≤ 0.026:
CUCUCGGUAGCCAGGUUGGUUUAAGGCGUAAGACUUUAAUUUAUCACUACGAAAUCUUGAGAUCGGGCGUUCGACUCACCCCCGGGAGAUUUUUUCCUCGAGCAA [A14G C29U G78A]
CUCUCGGUAGCCAGGUUGGUUUAAGGCGUAAGACUUUAAUUUAUCACUACGAAAUCUUGAGAUCGGGCGUUCGACUCGCCCCCGGGACAUUUUUUCCUCGAGCAA [A14G C29U G88C]
CUCUCGGUAGCCAGGUUGGUUUAAGGCGUAAGACUUUAAUUUAUCACUACGAAAUCGUGAGAUCGGGCGCUCGACUCUCCCCCGGGAGAUUUUUUCCUCGAGCAA [A14G C29U U57G U70C G78U]
CUCUCGGUAGCCAGGUUGGUUUAAGGCGCAAGAGUUUAAUUUAUCACUACGAAAUCUUGAGAUCGGGCGUUCGACUCGCCCCCGGGAGAUUUUUUCCUCGAGCAA [A14G C34G]
CUCUCGGUAGCCAGGUUGGUUUAAGGCGCAAGAUAUUAAUUUAUCACUACGAAAUCUUGAGAUCGGGCGUUCGACUCGCCCCCGGGAGAUUUUUUCCUCGAGCAA [A14G C34U U35A]
CUCUCGGUAGCCAGGUUGGUUUAAGGCGCAAGACUUUAAUUUAUCACUACGAAAUAUUGAGAUCGGGCGUUCGACUCGCCCCCGGGAGAUUUUUUCCUCGAGCAA [A14G C56A]
CUCUCGGUAGCCAGGUUGGUUUAAGGCGCAAGACUUUAAUUUAUCACUACGAAAUGUUGAGAUCGGGCGUUCGACUCGCCCCCGGGAGAUUUUUUCCUCGAGCAA [A14G C56G]
CUCUCGGUAGCCAGGUUGGUUUAAGGCGCAAGACUUUAAUUUAUCACUACGAAAUCUUGAGAUAGGGCGUUCGUCUCGCCCCCGCGAGAUUUUUUCCUCGAGCAA [A14G C64A A74U G85C]
CUCUCGGUAGCCAGGUUGGUUUAAGGCGCAAGACUUUAAUUUAUCACUACGAAAUCUUGAGAUGCGGCGUUCGACUCGCCCCUGGGAGAUUUUUUCCUCGAGCAA [A14G C64G G65C C83U]
CUCUCGGUAGCCAGGUUGGUUUAAGGCGCAAGACUUUAAUUUAUCACUACGAAAUCUUGAGAUUCGGCUUGCGACUCGCCCCCGGGAGAUUUUUUCCUCGAGCAA [A14G C64U G65C G69U U71G]
CUCUCGGUAGCCAGGUUGGUUUAAGGCGCAAGACUUUAAUUUAUCACUACGAAAUCUUGAGAUCGGGAGUUCGACUCGCCCCCGGGAGAUUUUUUCCUCGAGCAA [A14G C68A]
CUCUCGGUAGCCAGGUUGGUUUAAGGCGCAAGACUUUAAUUUAUCACUACGAAAUCUUGAGAUCGGGGGUUCGACUCGCCCCCGGGAAAUUUUUUCCUCGAGCAA [A14G C68G G88A]
CUCUCGGUAGCCAGGUUGGUUUAAGGCGCAAGACUUUAAUUUAUCACUACGAAAUCUUGAGAUCGGGUGUUCGACUCGCCCCCGGGAGAUUUUUUCCUCGAGCAA [A14G C68U]
CUCUCGGUAGCCAGGUUGGUUUAAGGCGCAAGACUUUAAUUUAUCACUACGAAAUCUUGAGAUCGGGCGUUCGACUAGCCCCCGGGAGAUUUUUUCCUCGAGCAA [A14G C77A]
CUCUCGGUAGCCAGGUUGGUUUAAGGCGCAAGACUUUAAUUUAUCACUACGAAAUCUUGAGAUCGGGCGUUCGACUUGCCCCCGGAAGAUUUUUUCCUCGAGCAA [A14G C77U G86A]
CUCUCGGUAGCCAGGUUGGUUUAAGGCGCAAGACUUUAAUUUAUCACUACGAAAUCUUGAGAUCGGGCGUUCGACUCGACCCCGGGAGAUUUUUUCCUCGAGCAA [A14G C79A]
CUCUCGGUAGCCAGGUUGGUUUAAGGCGCAAGACUUUAAUUUAUCACUACGAAAUCUUGAGAUCGGGCGUUCGACUCGCCACCGGGAGAUUUUUUCCUCGAGCAA [A14G C81A]
CUCUCGGUAGCCAGGUUGGUUUAAGGCGCAAGACUUUAAUUUAUCACUACGAAAUCUUGAGAUCGGGCGUUCGACUCGCCCACGGGAGAUUUUUUCCUCGAGCAA [A14G C82A]
CUCUCGGUAGCCAGAUUGCUUUAAGGCGCAAGACUUUAAUUUAUCACUACGAAAUCUUGAGAUCGGGCGUUCGACUGGCCCCCGGGAGAUUUUUUCCUCGAGCAA [A14G G15A G19C C77G]
CUCUCGGUAGCCAGUUUGGUUUAAGGCGCAAGACUUUAAUUUAUCACUACGAAAUCUUGAGAUCGGGCGUUCGACUCGCCCCCGGGAGAUUUUUUCCUCGAGCAA [A14G G15U]
CUCUCGGUAGCCAGGUUAGUUUAAGGCGCAAGAGUUUAAUUUAUCACUACGAAAUCUUGAGAUCGGGCGCUGGACUCGCCCCCGGGAGAUUUUUUCCUCGAGCAA [A14G G18A C34G U70C C72G]
CUCUCGGUAGCCAGGUUCGUUUAAGGCGCUAGACUUUAAUUUAUCACUACGAAAUCUUGAGAUCGCGCGUUCGACUCGCCCCCGGGAGAUUUUUUCCUCGAGCAA [A14G G18C A30U G66C]
CUCUCGGUAGCCAGGUUUGUUGAAGGCGCAAGACUUUAAUUUAUCACUACGAAAUCUUGAGAUCGGGCGUUCGACUCGCCCCCGGGAGAUUUUUUCCUCGAGCAA [A14G G18U U22G]
CUCUCGGUAGCCAGGUUGGUUUAAAGCGCAAGACUUUAAUUUAUCACUACGAAAUCUUGAGAUCGGUCGUUCGACUCGCCCCCGGGAGAUUUUUUCCUCGAGCAA [A14G G25A G67U]
CUCUCGGUAGCCAGGUUGGUUUAAGACGCAAGACUUUAAUUUAUCACUACGAAAUCUUGAGAUCGCGCGUUCGACUCGCCCCCGGGAGAUUUUUUCCUCGAGCAA [A14G G26A G66C]
CUCUCGGUAGCCAGGUUGGUUUAAGCCGCAAGACUUUAAUUUAUCACUACGAAAUCUUGAGAUCGGGCGUUCGACUCGCCCCCGGGAGAUUUUUUCCUCGAGCAA [A14G G26C]
CUCUCGGUAGCCAGGUUGGUUUAAGUCGCAAGACUUUAAUUUAUCACUACGAAAUCCUGAGAUCGGGCGUUCGACUCUCCCCCGGGAGAUUUUUUCCUCGAGCAA [A14G G26U U57C G78U]
